Test results as given in a collection of fitness landscapes (doi:10.1016/j.celrep.2020.107928).
In all, about 81,000 sequences were measured (“one-hybrid fitness for binding NBS DNA”: median about -0.1, highest 2% from about 0.36 on). Some of the results follow.

B1: Caulobacter ParB omega fusion; a variant is named by its letters at X, in order, B8GW30 (parent)
chain: MESVVVGEPGMSEGRRGLGRGLSALLGEVDAAPAQAPGEQLGGSREAPIEILQRNPDQPRRTFREEDLEDLSNSIREKGVLQPILVRPSPDTAGEYQIVAGERAWRAAQRAGLKTVPIMVRELDDLAVLEIGIIENVQRADLNVLEEALSYKVLMEKFERTQENIAQTIGKSXSHVANXMRLLXLPDEVQSYLVSGELTAXHARAIAAAADPVALAKQIIEGGLSVRETEALARKAPNLSAGKSKGGRPPRVKDTDTQALESDLSSVLGLDVSIDHRGSTGTLTITYATLEQLDDLCNRLTRGI

Variants of: B1
Assay: one-hybrid fitness for binding NBS DNA (the Noc-binding site; scaled: cognate 1, non-cognate 0); higher = stronger binding
Details: with NBS DNA site
Method in brief: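 Fitness here means the log change in variant-to-wild-type read ratio between plasmids sequenced before and after selection. That scale was set so cognate equals 1 and non-cognate equals 0. The selection was a bacterial one-hybrid screen of Caulobacter ParB libraries, four specificity codons randomised, in E. coli USO carrying a HIS3 reporter with the site 19 bp from the promoter, grown 48 hours at 37°C on M9-minus-histidine with 0.1 mM IPTG and 5 mM 3-AT.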

Variant	one-hybrid fitness for binding NBS DNA
PPNV	≤ 0.2
AMPI	≤ 0.2
PMGH	≤ 0.2
PFTP	≤ 0.2
QEDC	≤ 0.2
DAAR	≤ 0.2
TPVV	≤ 0.2
QRQQ	0.397
PCDS	≤ 0.2
HERF	≤ 0.2
RAHP	≤ 0.2
HRRM	≤ 0.2
FAEL	≤ 0.2
MRKR	0.307
GART	≤ 0.2
PYLS	≤ 0.2
VFIR	≤ 0.2
AWAM	≤ 0.2
YNMR	≤ 0.2
DYTC	≤ 0.2
NITC	≤ 0.2
AVGE	≤ 0.2
LYKL	≤ 0.2
CENT	≤ 0.2
INEI	≤ 0.2

Variant	one-hybrid fitness for binding NBS DNA
WESI	≤ 0.2
RFQC	≤ 0.2
LQNR	≤ 0.2
WSQR	≤ 0.2
GPKN	≤ 0.2
REIF	≤ 0.2
IANP	≤ 0.2
AYVA	≤ 0.2
SKKS	≤ 0.2
LSCL	≤ 0.2
EARI	≤ 0.2
LSYW	≤ 0.2
GATY	≤ 0.2
PLMS	≤ 0.2
EIGE	≤ 0.2
RFQM	≤ 0.2
AFVS	≤ 0.2
KDYR	≤ 0.2
DYAL	≤ 0.2
SAPS	≤ 0.2
QIVS	≤ 0.2
LKMK	≤ 0.2
HCSC	≤ 0.2
KTIQ	≤ 0.2
LPPP	≤ 0.2

Variant	one-hybrid fitness for binding NBS DNA
DWTT	≤ 0.2
AHTT	≤ 0.2
EIAY	≤ 0.2
PRDH	≤ 0.2
CAAV	≤ 0.2
KRLR	0.456
KEKS	≤ 0.2
TCLL	≤ 0.2
RQFS	0.206
REIG	≤ 0.2
YPAH	≤ 0.2
KKTR	0.27
NFAT	≤ 0.2
TYEY	≤ 0.2
NTTP	≤ 0.2
EMNG	≤ 0.2
NPAL	≤ 0.2
WPVT	≤ 0.2
NFAL	≤ 0.2
VAPD	≤ 0.2
SYGS	≤ 0.2
HLNL	≤ 0.2
FGHS	≤ 0.2
SMNR	≤ 0.2
RSRM	≤ 0.2

Variant	one-hybrid fitness for binding NBS DNA
LFSV	≤ 0.2
GISR	≤ 0.2
QTKF	0.43
IMET	≤ 0.2
QGCT	≤ 0.2
MRMC	≤ 0.2
VYQG	≤ 0.2
PHLC	≤ 0.2
YCKR	≤ 0.2
SNIT	≤ 0.2
SCSK	≤ 0.2
QEEM	≤ 0.2
TYAN	≤ 0.2
IQST	≤ 0.2
IKTR	≤ 0.2
TVKF	≤ 0.2
KWDR	≤ 0.2
DYCR	≤ 0.2
DDTA	≤ 0.2
THYC	≤ 0.2
VRHS	≤ 0.2
VGST	≤ 0.2
YPWG	≤ 0.2
FTAD	≤ 0.2
RFYG	≤ 0.2

Variant	one-hybrid fitness for binding NBS DNA
TSHT	≤ 0.2
ENPG	≤ 0.2
VPLT	≤ 0.2
YPVW	≤ 0.2
QYPD	≤ 0.2
ELPT	≤ 0.2
CRSC	≤ 0.2
DFQR	≤ 0.2
FMNT	≤ 0.2
HCPS	≤ 0.2
CTNR	≤ 0.2
SLVR	≤ 0.2
CCLA	≤ 0.2
QHTR	0.527
VFRV	≤ 0.2
YNLC	≤ 0.2
FMRR	0.216
QQLV	≤ 0.2
CYRY	≤ 0.2
HASF	≤ 0.2
RSTW	≤ 0.2
TCGA	≤ 0.2
CRLN	≤ 0.2
IKSY	≤ 0.2
NYAI	≤ 0.2

Variant	one-hybrid fitness for binding NBS DNA
PGLI	≤ 0.2
VANL	≤ 0.2
PRAH	≤ 0.2
NEGA	≤ 0.2
LGVC	≤ 0.2
GAMY	≤ 0.2
EAIS	≤ 0.2
LQDR	≤ 0.2
YLKY	≤ 0.2
QPGW	≤ 0.2
QTDY	≤ 0.2
KMKP	≤ 0.2
QTWN	≤ 0.2
WETF	≤ 0.2
LASN	≤ 0.2
CFWR	≤ 0.2
LKIL	≤ 0.2
AKYY	≤ 0.2
RMEC	≤ 0.2
HTMR	≤ 0.2
NIVQ	≤ 0.2
VQSY	≤ 0.2
KSLR	≤ 0.2
GRRI	≤ 0.2
HRFV	≤ 0.2

Variant	one-hybrid fitness for binding NBS DNA
THAC	≤ 0.2
RFLD	≤ 0.2
LIFD	≤ 0.2
PQWS	≤ 0.2
TQAD	≤ 0.2
RYPI	≤ 0.2
KNIG	≤ 0.2
APLG	≤ 0.2
ALQD	≤ 0.2
SRTP	≤ 0.2
PLSH	≤ 0.2
PNFG	≤ 0.2
ERMR	≤ 0.2
LVRY	≤ 0.2
RCDI	≤ 0.2
RYIP	≤ 0.2
RRKI	0.607
ETQW	≤ 0.2
DAVS	≤ 0.2
ENWS	≤ 0.2
LVWS	≤ 0.2
AESG	≤ 0.2
AGVD	≤ 0.2
VGAR	≤ 0.2
QSTF	≤ 0.2

Variant	one-hybrid fitness for binding NBS DNA
LHAR	≤ 0.2
PVFF	≤ 0.2
TGST	≤ 0.2
TLPI	≤ 0.2
YQDS	≤ 0.2
AIRC	≤ 0.2
LSYV	≤ 0.2
QQCY	≤ 0.2
ETSG	≤ 0.2
FLSR	≤ 0.2
VRTW	≤ 0.2
KRVT	0.547
RQFF	≤ 0.2
PWTP	≤ 0.2
NWPS	≤ 0.2
SSCP	≤ 0.2
AQEM	≤ 0.2
CKTL	≤ 0.2
HHSE	≤ 0.2
VQLR	≤ 0.2
